The RNAGym collection of RNA variant scans (doi:10.7554/elife.90254)
The source gives no read counts; variants with many changes may rest on few reads.

B1: LINE1-full (parent)
chain: UACGUAGGUGGUUUUCCCCUGAUAGUGCUAAGGGGGCCUGGAAGUUUGGACUGGGCAGAGCUCAACACAGCGUGGCAAAGUGGCUGUGGCUAGACUGCCUCUCUGGAUUCCUCGUCACUCAGCAGGGCAUCUCUGAGAGAAAUGCC

Variants of: B1
Test: self-cleavage, relative activity (ratio to wild type); higher = more cleavage; in vitro, sequencing; the parent is a self-cleaving ribozyme

**Q.** For UACGUAGGUGGUUUUCCCCUGAUAGUGCUAAGGGGGCCUGGAUGUUUGGACUGGGCAGAGCUCAGCACAGCGUGGCAAAGUGGCUGUGGCUAGACUGCCUCUCUGGAUUCCUCGUCACUCAGCAGGGCACCUCUGAGAGAAAUGCC [A43U A65G U130C], which self-cleavage is on record?
**A.** Its self-cleavage is 0.17.

**Q.** Which self-cleavage does the source give for UACGUAGGUGCUUUUCCCCUGAUAGUGCUAAGGGGGCCUGGAAGCUUGGACUGGGCAGAGCACAACACAGCGUGGCAAAGUGGCUGUGGCUAGACUGCCUCUCUGGAUUCCUCGUCACUCAGCAGGGCAUCUCUGAGAGAAAUGCC [G11C U45C U62A] here?
**A.** Its self-cleavage is 0.17.

**Q.** With UACGUAGGUGGUCUUCCCCUGAUAGCGCUAAGGGGGCCUGGAAGUUUGGACUGGGCAGAGCACAACCCAGCGUGGCAAAGUGGCUGUGGCUAGACUGCCACUCUGGAUUCCUCGUCACUCAGCAGGGCAUCUCUGAGAGAAAUGCC [U13C U26C U62A A67C U100A] as the variant, how does the self-cleavage read?
**A.** Its self-cleavage is 0.

**Q.** Which self-cleavage does the source give for UACGUAGGUGGUUUUCCCCUGAUAGUGCUAAGGGGGCCUGGAAGUUUGGACUGGGCAGAGCUCAACACAGCGUGGCAUAGUGGCUGUGGCUAGACUGCCUCUCUGGAUUCCUCGUCACUCUGCAGGACAUCUCUGAGAGAAAUGCC [A78U A121U G127A] here?
**A.** The self-cleavage was 1.97.

**Q.** For UACGUAGGGGGUUUUCCCCUGAUGGUGCUAAGGGGGCCUGGAAGUUUGGACUGGGCAGAGCUCAACACAGCGUGGCAAAGUGGCUGUGGCUAGACUGCCUCUCUGGAUACCUCGUCACUCAGCAGGGCGUCUCUGAGAGAAAUGCC [U9G A24G U109A A129G], which self-cleavage is on record?
**A.** Its self-cleavage is 1.02.

**Q.** Which self-cleavage does the source give for UACGUAGGUGGUUUUCCCCUGAUAGUGCUAAGGGGGCCUGGGGGUUUGGACUGGGCAGAGCUCAACACAGCGUAGCAUAGUGGCUGUGGCUAGGCUGCCACUCUGGAUUCCUCGUCACUUAGCAGGGCAUCUCUGAGGGAAAUGCC [A42G A43G G74A A78U A94G U100A C120U A138G] here?
**A.** Its self-cleavage is 0.31.

**Q.** Which self-cleavage does the source give for UACGUAGGUGGUUUUCCCCUGAUAGUGCUAAGGGGGCCUGGAAGUUAGGACUGGUCAGGGCUCAACACUGCGUGGCGAAGUGGCUGUGGCUAGACUGCCUCUCUGGAUUCCUCGUCACUCAGCAGGGCACCUCUGAGAGAAAUGCC [U47A G55U A59G A69U A77G U130C] here?
**A.** Its self-cleavage is 0.04.

**Q.** Which self-cleavage does the source give for UACGUAGGCGGUUUUCCCCUGAUAGUGCUAAGGGGGCCUGGAAGUUUGGACUGGGCAGAGCUCAACUCAGCGUGGCAAAGUGGCUGUGGCUGGUCAGCCUCUCUGGAUUCCUCGCCACUCAGCAGGGCAUCUCUGAGAGAAAUGCC [U9C A67U A92G A94U U96A U115C] here?
**A.** Its self-cleavage is 0.66.

**Q.** For UACGUAGGUGGUUUUCCCCUGAUAGUGCUAAGGGGGCCUGGAAGUUUGGACUGGGCAGAGCUCAACACAGCGUGGCGAAGCGGCUGCGGCUAGACUUCCCCUCUGGAUUCCUCGUCACUCAGCAGGGCAUCUCUGAGAGAAUUGUC [A77G U81C U87C G97U U100C A142U C145U], which self-cleavage is on record?
**A.** Its self-cleavage is 0.

**Q.** With UACGUAGGUGGUUUUCCCCCGGUAGUGCUAAGGGGGCCUGGAAGUUUGGACUGGGCAGAGCUCAACACAGCGUGGCAAAGUGGCUGUGGCUAGACUGCCUCUCUGGAUUCCUCGUCACUCAGCAGGGCAUCUCUGAGAGAAGUGCC [U20C A22G A142G] as the variant, how does the self-cleavage read?
**A.** The self-cleavage was 0.6.

**Q.** With UACGUAGGUGGUUUUCCCCUGAUAGUGCUAAGGGGGCCUGGAAGCUAGGACUGGGCAGAGCUCAACACAGCGUGGCUAAGUGGCUGUGGCUAGACUGCCUCUCUGGAUUCCUCGUCACUCAGCAGGGCAUCUCUGAGAGAAAUGCC [U45C U47A A77U] as the variant, how does the self-cleavage read?
**A.** Its self-cleavage is 1.71.

**Q.** Which self-cleavage does the source give for UACGUAGGUGGUUUUCCCCUGAUAGUGCUAAGGGGGCCUGGAAGUUUGGACUGGGCAGAGCUCAACACAGCGUGGCAAAGUGGCUGUGGCUAGACUGCCUCUCUGGAUUCCUCGUCACUCAGCCGGGCAUCUCCGAGAGAAGUGCC [A124C U134C A142G] here?
**A.** The self-cleavage was 2.45.

**Q.** With UACGUAGGUGGUUUUCCCCAGAUAGUGCUAAGGGGGCCUGGAAGUUUGGACUGGGCAGAGCUCGACACAGCGUGGCAAAGUGGCUGUGGCUAGACUGCCCCUCUGGAUUCCUCGUCACUCGGCAGGGCAUCUCUGAGAGAAAUGCC [U20A A64G U100C A121G] as the variant, how does the self-cleavage read?
**A.** Its self-cleavage is 0.

**Q.** For UACGUAGGUGGUUUUCCCCUGAUAGUGCUAAGGGGGCCUGGAAGUUUGGACUGGGCAGUGCUCAACACAGCGUGGCAAAGUGGCUGUGGCCAGACUGCAUCUCUGGAUUCCUCGUCACUCAGCAGGGCAUCUCUGAGAGAGAUGCC [A59U U91C C99A A141G], which self-cleavage is on record?
**A.** Its self-cleavage is 0.11.

**Q.** Which self-cleavage does the source give for UACGUAGGUGGUUUUCCCCUGAUAGUGCUAAGGGGGCCUGGAAGUCUGGACUGGGCAGAGCUCAACACAGCGUGGCAAAGUGGCUGUGGCUAGACUGCCACUCUGGAUCCCUCGUCACUCAGCAGGGCACCUCUGAGAGAAAUGCC [U46C U100A U109C U130C] here?
**A.** Its self-cleavage is 0.15.

**Q.** For UACGUAGGUGGUUUUCCCCUGAUAGUGCUAAGGGGGCCUGGAAGUUUGGACAGGGCAGAGCUCACCGCAGCGUGCCAAAGUGGCUGUGGCUAGACUGCCUCUCUGGAUUCCUCGUCACUCAGCAGGGCAUCUCUGAGAGAAAUGCC [U52A A65C A67G G75C], which self-cleavage is on record?
**A.** The self-cleavage was 0.17.

**Q.** Which self-cleavage does the source give for UACGUAGGUGGUAUUCCCCUGAUAGUGCUAAGGGGGCCAGGAAGUUUGGACUGGGCAGAGCUCGACACAGCGUGGCAAAGUGGCUGUGGCUAGACUGCCUCUCUGGAUUCCUCGUCACUCAGCAGGGCAUCUCUGAGAGAAGUGCC [U13A U39A A64G A142G] here?
**A.** The self-cleavage was 0.14.

**Q.** For UACGUAGGUGGUUUUCCCCUGAUAGUGCUAAGGGGGCCUGGAAGUUUGGACUGGGCAGAGCUCAACACAGCGUGGCAAAGUGGCUGUGGCUAGACUGCCUCUCCGGAUUCCUCGUCAGUCAGCAGGGCAUCUCUGAGAGAGAUGCC [U104C C118G A141G], which self-cleavage is on record?
**A.** The self-cleavage was 1.36.

**Q.** Which self-cleavage does the source give for UACGUAGGUGGUUUUCCCCUGAUAGUGCUAAGGGGGCCUGGAAGUUUGGACUGGGCAGAGCUCAACACGGCGUGGCAAAGUGGCUGUGGCUAGACUGCCUCUCAGGAUUCCUCGUCACUCAGCAGGGCAUCUCUGAGAGAAACGCC [A69G U104A U143C] here?
**A.** The self-cleavage was 0.33.

**Q.** For UACGUAGGUGGUUUUCCCCUGAUAGUGCUAAGGGGGCCUGGAAGCUUGGACUGGGCUGAGCUCAACACUGCGUGGCAAAGUGGCUGUGGCUAGACUGCCUCUCUGGAUUCCUCGUCACUCAGCAGGGCAUCUCUGAGAGAAAUGCC [U45C A57U A69U], which self-cleavage is on record?
**A.** Its self-cleavage is 0.11.
